# Test results as given in PubChem BioAssay (Tox21).
# Where “and” joins values, the source holds several entries; their conditions need not be identical. Equal values may be shown once. Inconclusive means that the source gave no clear call. Such entries were picked first, then a sample of the others. Potencies of inconclusive entries are doubtful fits and often do not repeat. A structure can be active in one record and inactive in another. Calls of active or inactive are those of the source. Unless noted, calls follow the shape of the dose curve; as a rule, active = well fitted cell-killing curve with a large enough effect in the repeat runs; inconclusive = weak or mixed curves, or effect the other way; inactive = no such curve, though single readings can be large or run the other way.
# Tests used:
# [1] = qHTS assay to identify small molecule agonists of the farnesoid-X-receptor (FXR) signaling pathway - cell viability counter screen (AID 743218); conditions: FXR-bla HEK293T viability, CellTiter-Glo luminescence, 16 h; viability change, negative = cytotoxic: at 62.6 µM (top of the series) unless noted; also: nearly all actives have a fitted effect of over 45% in size
# Summary of the method: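 Viability counter screen in the same wells: CellTiter-Glo luminescence, 30 min room-temperature incubation, measured after the beta-lactamase read. Cells were GeneBLAzer FXR-UAS-bla HEK 293T, compound-treated 16 h at 37C.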
# [2] = biological target: Vitamin D3 receptor (Homo sapiens) (UniProt P11473); assay: qHTS assay to identify small molecule agonists of the vitamin D receptor (VDR) signaling pathway (AID 743222; calls by dose curve); conditions: HEK293T VDR-UAS-bla, beta-lactamase FRET ratio, 16 h; activation: at 63.5 µM (top of the series) unless noted
# Chain of UniProt P11473 (P11473 whole entry, looked up): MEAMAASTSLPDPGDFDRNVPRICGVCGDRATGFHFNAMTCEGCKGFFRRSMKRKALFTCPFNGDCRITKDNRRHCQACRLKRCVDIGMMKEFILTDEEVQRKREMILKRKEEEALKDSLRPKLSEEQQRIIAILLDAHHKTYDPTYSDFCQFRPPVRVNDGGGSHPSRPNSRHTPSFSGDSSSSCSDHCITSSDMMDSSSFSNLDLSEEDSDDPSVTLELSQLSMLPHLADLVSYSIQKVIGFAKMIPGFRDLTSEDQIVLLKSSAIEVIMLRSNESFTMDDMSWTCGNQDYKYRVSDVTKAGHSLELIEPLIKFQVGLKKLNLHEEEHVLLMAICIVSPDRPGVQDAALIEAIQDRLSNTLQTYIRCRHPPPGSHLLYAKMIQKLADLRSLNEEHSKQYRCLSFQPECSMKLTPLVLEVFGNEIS
# Summary of the method: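 Agonist mode, beta-lactamase reporter: fluorescence from LiveBLAzer B/G FRET substrate (2 h, room temperature) read after 16 h compound treatment at 37 C of VDR-bla cells, which were pre-incubated 4 h after seeding.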
# [3] = biological target: Vitamin D3 receptor (Homo sapiens) (UniProt P11473); assay: qHTS assay to identify small molecule antagonists of the vitamin D receptor (VDR) signaling pathway (AID 743223; active = well fitted inhibition curve with a large enough effect in the signal ratio in the repeat runs, not every such curve was filed as active; inconclusive = weak or mixed curves, or effect the other way; inactive = no such curve, though single readings can be large or run the other way; the % refers to the signal ratio; as to activity change, negative = inhibition: % is scaled to controls: 0 for no effect and ±100 for the full control effect); conditions: VDR-UAS-bla HEK293T, beta-lactamase FRET ratio, 16 h; activity change, negative = inhibition: at 61 µM (top of the series) unless noted
# Summary of the method: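 Agonist 1alpha,25-dihydroxyvitamin D3 (3 nM in well) was added with each compound to VDR-bla cells preincubated 4 h. Cells stood 16 h at 37C, then FRET substrate 2 h at room temperature; fluorescence intensity recorded.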
# [4] = qHTS assay to identify small molecule antagonists of the vitamin D receptor (VDR) signaling pathway - cell viability counter screen (AID 743225); conditions: VDR-bla HEK293T viability, CellTiter-Glo luminescence, 16 h; viability change, negative = cytotoxic: at 61 µM (top of the series); also: nearly all actives have a fitted effect of over 50% in size
# Summary of the method: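 Luminescent cell viability (CellTiter-Glo) in VDR-bla HEK 293T cells after 16 h compound exposure at 37C in the presence of 3 nM final 1-alpha,25-dihydroxy vitamin D3.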
# [5] = qHTS assay to identify small molecule agonists of the NFkB signaling pathway (AID 1159509; active = well fitted curve in the direction sought with a large enough effect in the signal ratio in the repeat runs, not every such curve was filed as active; inconclusive = weak or mixed curves, or a change in a side signal; inactive = no such curve, though single readings can be large or run the other way; the % refers to the signal ratio; as to activation: % is scaled to controls: 0 for no effect and ±100 for the full control effect); conditions: NFkB-bla ME-180 cells, beta-lactamase FRET ratio, 5 h; activation: at 61 µM (top of the series) unless noted
# Summary of the method: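 Readout: FRET fluorescence, 405 nm excitation, 460/530 nm emission; beta-lactamase expression disrupts FRET. Cells: ME-180 stably carrying NF-kB-driven bla reporter. Compound exposure 5 hr, 37 C, 5% CO2.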
# [6] = qHTS assay to identify small molecule agonists of the endoplasmic reticulum stress response signaling pathway (AID 1159516; active = well fitted activation curve with a large enough effect in the signal ratio in the repeat runs, not every such curve was filed as active; inconclusive = weak or mixed curves, or effect the other way; the % refers to the signal ratio; as to activation: % is scaled to controls: 0 for no effect and ±100 for the full control effect); conditions: ESRE-bla HeLa, ER stress beta-lactamase reporter, 5 h; activation: at 61 µM (top of the series) unless noted
# Summary of the method: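 Ratiometric FRET readout (405 nm excitation; 460 and 530 nm emission) of a beta-lactamase gene driven by the ER stress response element, after 2 hr substrate loading. HeLa ESRE-bla cells were seeded overnight and treated with compounds for only 5 hr at 37 C.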
# [7] = biological target: Bile acid receptor (Homo sapiens) (UniProt Q96RI1); assay: qHTS assay to identify small molecule agonists of the farnesoid-X-receptor (FXR) signaling pathway (AID 743220; active = well fitted activation curve with a large enough effect in the signal ratio in the repeat runs, not every such curve was filed as active; inconclusive = weak or mixed curves, or effect the other way; the % refers to the signal ratio; as to activation: % is scaled to controls: 0 for no effect and ±100 for the full control effect); conditions: HEK293T FXR-UAS-bla, beta-lactamase FRET ratio, 16 h; activation: at 62.6 µM (top of the series) unless noted
# Chain of UniProt Q96RI1 (Q96RI1 whole entry, looked up): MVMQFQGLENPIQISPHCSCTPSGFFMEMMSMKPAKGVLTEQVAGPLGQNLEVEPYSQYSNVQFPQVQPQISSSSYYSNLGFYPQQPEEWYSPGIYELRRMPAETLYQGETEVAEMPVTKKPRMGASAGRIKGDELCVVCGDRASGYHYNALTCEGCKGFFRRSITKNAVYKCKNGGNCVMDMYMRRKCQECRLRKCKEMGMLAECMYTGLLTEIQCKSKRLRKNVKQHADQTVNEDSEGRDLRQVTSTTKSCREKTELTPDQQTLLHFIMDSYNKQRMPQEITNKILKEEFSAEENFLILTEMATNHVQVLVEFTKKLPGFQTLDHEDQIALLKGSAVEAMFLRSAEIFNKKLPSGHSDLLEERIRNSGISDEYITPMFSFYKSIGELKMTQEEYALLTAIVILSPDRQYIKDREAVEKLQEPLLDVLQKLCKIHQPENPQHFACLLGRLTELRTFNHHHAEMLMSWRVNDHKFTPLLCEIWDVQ
# Summary of the method: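 FXR-UAS-bla HEK 293T cells carrying a UAS-driven beta-lactamase reporter were plated for 5 h at 37C/5% CO2, then exposed to DMSO-dissolved Tox21 10K compounds for 16 h at 37C. A LiveBLAzer B/G FRET substrate was loaded for 2 h at room temperature before fluorescence reading.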
# [8] = qHTS assay to identify small molecule agonists of the vitamin D receptor (VDR) signaling pathway - cell viability counter screen (AID 743224); also: nearly all actives have a fitted effect of over 50% in size
# Summary of the method: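 Counter screen run in the same wells as the VDR-bla reporter assay: CellTiter-Glo luminescence, 30 min at room temperature, after 16 h compound treatment at 37C of cells pre-plated for 4 h.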
# [9] = qHTS assay to identify small molecule antagonists of the farnesoid-X-receptor (FXR) signaling pathway - cell viability counter screen (AID 743221; active = well fitted cell-killing curve with a large enough effect in the repeat runs, not every such curve was filed as active; inconclusive = weak or mixed curves, or effect the other way; inactive = no such curve, though single readings can be large or run the other way; also: nearly all actives have a fitted effect of over 50% in size); conditions: FXR-bla HEK293T viability, CellTiter-Glo luminescence, 16 h; activity change, negative = cytotoxicity: at 62.6 µM (top of the series) unless noted
# Summary of the method: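 In GeneBLAzer FXR-UAS-bla HEK 293T cells stimulated with 50 uM chenodeoxycholic acid (final), compounds acted for 16 h at 37 C. Viability was assessed afterwards by CellTiter-Glo luminescence.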
# Potency is read from the fitted curve at half-maximal effect; tags tell the direction and shape of the fitted curve or compound fluorescence and quenching.
compound,measurement,setting,value
Oc1ccc2ccc3cccc4ccc1c2c34,Potency,[1],"inconclusive: 49 µM [cytotoxic, partial curve]"
same,Potency,[2],"inconclusive: 38.9 µM [fluorescent, partial curve]"
same,"activity change, negative = inhibition",[3],inconclusive: 15.9%
same,Potency,[4],"inconclusive: 54.9 µM [cytotoxic, partial curve, poor fit]"
same,activation,[5],inconclusive: 7.41%
same,Potency,[6],inconclusive: 61.6 µM
Brc1cccc(-c2ccccc2)c1,Potency,[7],inactive
same,Potency,[4],"inconclusive: 15.6 µM [cytotoxic, partial curve, poor fit]"
same,Potency,[5],"inconclusive: 55.3 µM [falling, single point]"
same,activation,[6],inconclusive: -0.892% [at 78.8 µM]
CN1CCc2cc3c(cc2C1O)OCO3 (centres undefined),Potency,[2],"inconclusive: 49.3 µM [fluorescent, partial curve]"
same,Potency,[3],"inconclusive: 27.7 µM [fluorescent, partial curve]"
same,Potency,[8],inactive
same,Potency,[5],"inconclusive: 62 µM [fluorescent, single point]"
same,Potency,[6],"inconclusive: 3.91 µM [fluorescent, single point]"
CN1C(=O)[C@@H](NC(=O)c2cc3ccccc3[nH]2)N=C(c2ccccc2)c2ccccc21,Potency,[2],inactive
same,Potency,[5],"inconclusive: 30.1 µM [falling, single point]"
same,Potency,[6],"inconclusive: 23.9 µM [falling, single point]"
CC(C)(O)c1cnn2c(-c3ccc(F)c(-c4c(F)cccc4C#N)c3)cnc2n1,Potency,[7],inconclusive: 54.9 µM [fluorescent]
same,Potency,[9],"inconclusive: 61.6 µM [falling, partial curve, poor fit]"
same,Potency,[2],inconclusive: 54.9 µM [fluorescent]
same,Potency,[3],inconclusive: 54.9 µM [fluorescent]
same,Potency,[8],active: 27.5 µM
same,Potency,[4],"inconclusive: 24.5 µM [cytotoxic, partial curve, poor fit]"
same,Potency,[5],inconclusive: 54.9 µM [fluorescent]
same,Potency,[6],inconclusive: 54.9 µM [fluorescent]
CCCCC(CC)COC(=O)Cl (centres undefined),activation,[2],inconclusive: -15.4%
same,Potency,[3],inactive
same,Potency,[8],inactive
same,Potency,[5],inactive
same,Potency,[6],inconclusive: 55.1 µM
Cc1cccc(Cc2cnc[nH]2)c1C,activation,[2],inconclusive: 3.06%
same,Potency,[8],inactive
same,Potency,[5],"inconclusive: 12 µM [falling, partial curve]"
same,Potency,[6],inconclusive: 10.7 µM [partial curve]
OC(c1ccc(Cl)cc1)(c1ccc(Cl)cc1)c1cccnc1,Potency,[3],inactive
same,Potency,[8],"inconclusive: 54.9 µM [cytotoxic, partial curve, poor fit]"
same,Potency,[4],"inconclusive: 0.0039 µM [cytotoxic, full curve, poor fit]"
same,Potency,[5],inactive
same,activation,[6],inconclusive: 9.45%
CC(C)Oc1cc(-n2nc(C(C)(C)C)oc2=O)c(Cl)cc1Cl,activation,[7],inconclusive: 5.5%
same,Potency,[9],active: 49 µM
same,Potency,[2],"inconclusive: 15.5 µM [rising, full curve, poor fit]"
same,Potency,[3],"inconclusive: 49 µM [fluorescent, partial curve]"
same,Potency,[8],"inconclusive: 60.8 µM [cytotoxic, single point] and active: 12.3 µM"
same,Potency,[4],"inconclusive: 54.2 µM [cytotoxic, partial curve, poor fit] and active: 13.8 µM"
same,Potency,[5],"inconclusive: 60.8 µM [falling, single point]"
same,Potency,[6],inactive
Cc1cccc(N)c1N,Potency,[2],inconclusive: 59.6 µM
same,Potency,[5],inactive
same,Potency,[6],"inconclusive: 5.31 µM [rising, full curve]"
CC(C)(C)c1ccc(OP(=O)(Oc2ccccc2)Oc2ccccc2)cc1,Potency,[7],inactive
same,Potency,[9],"inconclusive: 24.7 µM [falling, partial curve, poor fit]"
same,Potency,[2],inactive
same,Potency,[4],"inconclusive: 55.3 µM [cytotoxic, single point]"
same,Potency,[5],"inconclusive: 24.7 µM [falling, partial curve]"
same,Potency,[6],inactive
Nc1c(Cl)c(F)nc(OCC(=O)O)c1Cl,Potency,[1],"inconclusive: 0.309 µM [rising, full curve, poor fit]"
same,Potency,[4],inactive
same,Potency,[5],inactive
same,Potency,[6],inactive
O=S(=O)(O)C(F)(F)C(F)(F)C(F)(F)C(F)(F)C(F)(F)C(F)(F)F,Potency,[2],inactive
same,"activity change, negative = inhibition",[3],inconclusive: 8.37%
same,Potency,[5],inactive
same,Potency,[6],inactive
O=C(Cl)OCc1ccccc1,activation,[2],inconclusive: -0.464% [at 81.1 µM]
same,"activity change, negative = inhibition",[3],inconclusive: 28.6% [at 78.8 µM]
same,Potency,[5],inactive
same,Potency,[6],inactive
